Data published in the supplement of paper PMC2702839.
Counter-ions that a name gives are not always drawn. Some of the results follow.

system: Schistosoma mansoni schistosomula; assay: phenotypic hit in primary schistosomula screen (any phenotype vs DMSO control) (binary (1 = hit, 0 = no phenotype)); higher = active (phenotype induced); details: 1 µM; time (d): 7

Structure (SMILES)	phenotypic hit
COc1c(O)cc2oc3cc(O)c(CC=C(C)C)c(O)c3c(=O)c2c1CC=C(C)C [alpha-mangostin]	inactive: 0
CCOC(=O)C1(O)Oc2cc(OC)cc(OC)c2C(=O)C1c1ccccc1 (stereo not given) [2-ethoxycarbonyl-2-hydroxy-5,7-dimethoxyisoflavanone]	inactive: 0
CC1(C)C[C@@H]2C(=O)CC[C@H]3O[C@]3(C)CC[C@H]21 [kobusone]	inactive: 0
O=C1CCC(N2C(=O)c3ccccc3C2=O)C(=O)N1 (stereo not given) [thalidomide]	inactive: 0
C[n+]1ccccc1C=NO [Pralidoxime iodide]	inactive: 0
CC[n+]1c(-c2ccccc2)c2cc(N)ccc2c2ccc(N)cc21 [homidium bromide]	active: 1
CNCCCN1c2ccccc2CCc2ccccc21 [Desipramine hydrochloride]	inactive: 0
O=C(O)[C@]1(O)C[C@@H](O)[C@@H](O)[C@H](O)C1 [quinic acid]	inactive: 0
Cc1cccc(Nc2ccccc2C(=O)O)c1C [mefenamic acid]	inactive: 0
CC(N)C(=O)OC(C)(C)Cc1ccc(Cl)cc1 (stereo not given) [Alaproclate hydrochloride]	inactive: 0
CC(C)NCC(O)c1cc(O)cc(O)c1 (stereo not given) [metaproterenol]	inactive: 0
Fc1ccc(C(c2ccccc2)(c2ccccc2F)n2ccnc2)cc1 (stereo not given) [flutrimazole]	inactive: 0
COc1ccc2c(c1)O[C@H]1c3ccc(OC)cc3OC[C@@H]21 [homopterocarpin]	inactive: 0
CC(C)CCCC(C)C1CCC2C3CCC4CC(O)CCC4(C)C3CCC12C (stereo not given) [cholestanol]	inactive: 0
COc1ccccc1N1CCN(CCCNc2cc(=O)n(C)c(=O)n2C)CC1 [Urapidil hydrochloride]	inactive: 0
NCCCC[C@H](NC(=O)[C@H](Cc1ccc(O)cc1)NC(=O)[C@@H](N)CCCCN)C(=O)O [lysyl-tyrosyl-lysine acetate]	inactive: 0
OC[C@H]1O[C@@](CO)(O[C@H]2O[C@H](CO)[C@@H](O)[C@H](O)[C@H]2O)[C@@H](O[C@H]2O[C@H](CO)[C@@H](O)[C@H](O)[C@H]2O)[C@@H]1O [melezitose]	inactive: 0
CCC(=O)OCC(=O)[C@@]1(OC(=O)CC)[C@@H](C)C[C@H]2[C@@H]3CCC4=CC(=O)C=C[C@]4(C)[C@@]3(Cl)[C@@H](O)C[C@@]21C [beclomethasone dipropionate]	inactive: 0
C=C(C)/C=C1/C=CC(=O)C(C)=C1 [retusoquinone]	inactive: 0
O=C(/C=C/C=C/c1ccc2c(c1)OCO2)N1CCCCC1 [piperine]	inactive: 0
